# The campaign covered roughly 150,000 compounds. About 540 (0.36%) showed an effect of 50% or more. Some of the results follow.
# Test system: Plasmodium falciparum
# Assay: Primary screen in NF54 nanoGlo assay, in single point, at 2uM, 72h; a lower Z score goes with more inhibition
# Type: functional, Erythrocyte
# Conditions: timepoint 72 hour
SMILES,% Inhibition [%],Z score
O=C1C[C@H]2CC[C@@H](CN1)N2C(=O)Cc1ccccn1,-9,1.56
CCCS(=O)(=O)N1CCC[C@H](C(=O)Nc2ccc(OC)nc2)C1,-17,2.27
COc1ccc(COCc2ccc(C(=N)N)cc2)cc1,-4,0.58
CCNc1ncc(C(=O)N2C[C@@H]3CC[C@H]2CN(S(C)(=O)=O)C3)cn1,-3,0.51
COc1ccc(-c2noc(N(C)CC(=O)Nc3ccc(F)c(Cl)c3)n2)cc1,0,0.02
CCCCCOCC(=O)Nc1cc(F)ccc1C(N)=O,-6,1.05
CC(C)[C@@H]1CN(C(=O)COC2CCCC2)c2ccccc2N1C(=O)COC1CCCC1,-10,0.86
CCN(CC)C(=O)C1(NC(=O)CCc2c(C)noc2C)CCCCC1,6,-0.86
O=C(NCCc1c[nH]cn1)[C@H]1CC(=O)N(c2n[nH]c3cc(Br)ccc23)C1,2,-0.24
Cc1cc(C)n(CC(=O)N2CCC(n3c(C)nn(C)c3=O)CC2)n1,-4,0.58
CC(=O)N1N=C(c2cccc3ccccc23)OC12CCCC2,-7,1.15
O=C1O[C@H]2CN(Cc3ccc(-c4ccn[nH]4)s3)C[C@H]2N1C1CCCC1,-1,0.1
CCCOc1ccc(N)cc1OCCC,-7,1.04
CCOc1cc(C(=O)N(C)C)ccc1N,7,-0.92
CN(Cc1cnn(C)c1)C(=O)c1cc2c(s1)CCCC2,-3,0.38
CN(C)C(=O)NCC(=O)N1C[C@@H]2CC[C@@H](C2)C1,8,-0.97
Cn1cc(C(=O)N2C[C@@H]3NC(=O)c4ccc(Cl)c(c4)OCCCn4cc(nn4)CO[C@H]3C2)ccc1=O,-8,1.49
CN(C[C@H]1CCCOC1)c1nccc2sccc12,-1,0.2
O=C(c1cccc(-n2cnnn2)c1)N1CCN(C(c2ccccc2)c2ccccc2)CC1,10,-1.28
COC(=O)[C@@]12CCCC[C@@H]1CN(C(=O)c1ccc3[nH]nnc3c1)C2,-1,0.07
O=S(=O)(N[C@H]1CCN(c2nccs2)C1)c1ccccc1Br,-1,0.11
Cc1cc2c(cc3n2C[C@@](C)(C(=O)NC2CCCCCCC2)N(Cc2cccnc2)C3=O)o1,-6,1.01

SMILES,% Inhibition [%],Z score
COc1cc(-c2cc(C(=O)N3CCCCCC3)c3ccccc3n2)cc(OC)c1OC,6,-0.7
Cc1nc([C@H](N)[C@H](C)O)n(-c2ccc(C(C)C)cc2)n1,6,-1.21
Cn1cc(C(=O)NC(c2ccc(F)cc2F)[C@H]2C[C@H](O)C2)cn1 (some centres not stated),1,-0.24
COC(=O)C1CCN(Cc2cnn(C(C)C)c2)CC1C (configuration not stated),-7,0.79
COc1ccnc(N[C@@H](CC(N)=O)C2CCCCC2)n1,-7,1.05
c1nc(N2CCCC2)c2sccc2n1,-2,0.23
Cc1ccc2c(c1)N(Cc1ccc(F)cc1)C=NS2(=O)=O,2,-0.25
O=S(=O)(Cc1ccc(Cl)cc1)N1CCC[C@H](Oc2ncc(Br)cn2)C1,5,-0.74
CC(=O)c1nc2ccccc2n1CC(=O)Nc1nn(C)c2cccc(Cl)c12,-13,1.65
NC1(c2noc(-c3cccnc3)n2)CCCCCC1,-26,3.03
O=C(Cn1c(=O)n(-c2cc(F)cc(F)c2)c(=O)c2sccc21)NCc1ccc(F)cc1F,39,-5.59
Cc1noc([C@H](C)NC(=O)c2cncc(O)n2)n1,-13,2.14
Cc1cccc(-c2nc(CN3CCN(c4ncccn4)CC3)c(C)o2)c1,-14,1.96
C[C@H](N(C)C(=O)c1ccncc1)C(C)(C)C,-12,2.2
CCc1nc(C(=O)NS(=O)(=O)Cc2cccc(OC)c2)co1,-4,0.47
CCN(CC)c1ccc(C(=O)Nc2ccc3c(c2)OCCCO3)cn1,-10,0.92
CN1CCNC(=O)[C@@H]1CC(=O)NC(c1ccccc1)c1ccccc1,5,-1.03
CCCOc1ccccc1[C@H]1CC(=O)NCc2nc(N3CCCC3)sc21,-12,1.25
Cc1nc(NC(=O)[C@H]2CC(=O)N(C)[C@@H]2c2cccnc2)nn1C,-1,0.13
Cc1ccc(-c2nn(-c3ccccc3)cc2C(=O)N2CCC2)c(C)c1,1,-0.17
C[C@@H](CC(=O)c1cccc(Br)c1)C(=O)N1CCOCC1,-4,0.48
Cc1ccc(NC(=O)CN(CC(C)C)CC(C)C)c(Br)c1,-9,1.54

SMILES,% Inhibition [%],Z score
CC(c1ccco1)N(C)C(=O)C1CCC(NC(=O)OC(C)(C)C)C1 (configuration not stated),-14,1.52
Cn1c(Cl)cnc1COC(=O)c1ccc2ccccc2c1,-7,1
CC(C)NC(=O)[C@@H]1C[C@H](N)CN1C(=O)Cc1csc(-c2ccccc2)n1,-14,1.9
COCCN1C[C@]2(CCCN(C(=O)CCn3cccn3)C2)CCC1=O,13,-1.7
CCOc1cc(CNCCn2ccnc2)ccc1O[C@@H](C)C(=O)N(C)C,-9,1.29
CC1CCNC(=O)C1NC(=O)NCCc1ccc(Cl)s1 (configuration not stated),-5,0.97
O=C(C[C@H](c1ccccc1F)c1cnc2ccc(Cl)cn12)N1CCN(c2cccc(C(F)(F)F)c2)CC1,-5,0.59
COc1ccc(Cl)cc1C(C)(C)NC(=O)Cn1ncnn1,14,-1.42
CNC(=O)[C@H]1CCN(c2nnc(C)c3ccccc23)C1,-11,2.08
CCC(CC)C(=O)N1CC[C@H]2CC(=O)Nc3ccccc3OCC[C@H]2C1,-5,0.82
Cn1ccc([C@@H]2CCCCCN2S(=O)(=O)c2ccc3c(c2)OCCO3)n1,-16,1.44
O=C(NC[C@H]1CCCN(C(=O)c2ccncc2F)C1)c1ccccc1,2,-0.23
CN(Cc1noc(-c2ccccc2)n1)C(=O)[C@@H]1CNCC(=O)N1,-19,3.48
CC(C)(C)C(=O)NCc1ccccc1Cl,-5,0.64
NC(=O)[C@@H]1CCCCN1C(=O)c1ccnc(-n2cccn2)c1,12,-1.33
C[C@H]1CCCCN1CCCNC(=O)CCCN1C(=O)CCn2nc(-c3cccn3C)cc21,-3,0.5
Cc1cccc(NC(=O)C(=O)NCCO)c1Cl,-14,1.9
Cc1ccc(F)c(N2CCC[C@H](NC(=O)CCc3cnn(C)c3)C2)c1,-2,0.25
CC(C)c1nccn1Cc1cc(=O)n2ccsc2n1,2,-0.3
CCCn1nc(C)cc1CN(C)c1ccc(NS(=O)(=O)c2cccc(F)c2)cc1C(=O)O,-8,1.03
CC1=C(C(=O)N[C@@H](C)c2ccc3[nH]ccc3c2)OCCO1,-12,2.29
C[C@H](NC(=O)N(Cc1ccncc1)C1CCN(C)CC1)c1cccs1,-16,1.39

SMILES,% Inhibition [%],Z score
Cc1noc(C)c1CCS(=O)(=O)C1CCCC1,0,0
O=C1NC2(CCCC2)C(=O)N[C@H]1Cc1c[nH]c2ccccc12,-10,1.98
C[C@@H](CCNCc1cn(C)nc1C(C)(C)C)N(C)C,0,0.02
O=C1OC2CC1N(C(=O)c1cnn(-c3ccccc3)n1)C2 (configuration not stated),-4,0.7
CC(C)Oc1cncc(-c2ccc3c(c2)CCN3)c1,-1,0.14
C#CCCC1(CCC(=O)N2CC[C@H](c3ccc(OC)c(F)c3)C2)N=N1,5,-0.65
Cc1cc(Br)oc1C(=O)NCCOC1CCCCCC1,-11,1.29
Cc1cnc(NCCCN2CCC[C@H](C)C2)nc1,-7,0.85
Cc1cc(N2CCCCC[C@H]2c2noc(C(C)C)n2)n2ncnc2n1,-14,1.73
C[C@H](CCO)NCc1sccc1Cl,5,-0.62
Cc1ccnc2nc(C(=O)O[C@@H](C)Cc3ccccc3)nn12,-12,1.93
CCOC(Cn1cc(C(=O)NC[C@H](C)c2ccccc2)nn1)OCC,-6,0.74
O=C(Cc1ccn[nH]1)N(CCc1ccccc1)[C@H]1CCOC1,-5,0.64
CN(c1ccc(C(=O)N[C@H]2CCC(=O)NC23CCC3)cc1)C1CCCCC1,2,-0.31
O=C([C@@H]1COc2cc(S(=O)(=O)N3CCN(c4ccccc4)CC3)ccc2O1)N1CCCCCC1,-14,1.56
c1cc(-c2ccc3c(c2)OCCCO3)n2nccc2n1,-3,0.48
Cc1cc([C@@H]2CCCCN2C(=O)c2ccsc2)no1,2,-0.28
O=C(N[C@@H]1CN(C(=O)c2ccco2)CC[C@@H]1CO)c1ccccc1,-6,0.74
c1ccc2c(CNc3ccc4[nH]ncc4c3)cccc2c1,-8,1.47
CC(C)(C)C(=O)N1Cc2cncnc2C1,-16,2.77
